The supplement of paper PMC11417369
The other results are listed elsewhere or left out.

These sequences were tested on PfAP2-HC AP2 domain (GST-tagged) (assay: gcPBM binding intensity (ln(normalized median fluorescence intensity)); higher = stronger DNA binding).
Method in brief: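 GST-fused DNA-binding domains of P. falciparum, expressed in E. coli, were applied at about 25 μg on average for 1 h to an Agilent 4 × 180k array of primer-extended double-stranded 36-bp intergenic genomic probes and negative controls. Binding intensity is the highest Masliner-normalised natural-log median intensity across replicate spots of either probe orientation, measured with Alexa488 anti-GST antibody and a 488 nm scan.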

Row | Sequence | gcPBM binding intensity (ln)
1 | TATATATATACATATTGTACATGTGTATATTTTTTT [XGTACX_site361] | 9.75
2 | AAAATTTAATATAATGCACACATAAAAAAAAAAAAA [CACACA_site7923] | 9.68
3 | CCATTTTTTTTATACGCACACGTCATACTTTTAAAA [CACACA_site4988] | 10.1
4 | TATAAAATATAATTAGCACACATATATAAAATATAT [CACACA_site9355] | 9.75
5 | AATATATGTAATATATGTACTTAATTATATTTTAAT [XGTACX_site4382] | 9.57
6 | TACTAATATGATATATAAATATTGTTATATAATAAT [XGTACX_negctrl_site227] | 9.52
7 | TGAATACAAATTTACGCATGTAATTTCCAGAGGGAG [TGCATGCA_site769] | 9.64
8 | AAAATAAAAGAAAAAAGTACAAAATCAGATTAATTA [XGTACX_site8413] | 9.72
9 | GTATATTTTTAAAGGTGTACTTTTTTTTTTTTTTTT [XGTACX_site721] | 9.66
10 | ATATAAAACTATAATACACACATAAAATATATTATA [CACACA_site6588] | 9.79
11 | TATATTTATTTATTCTGTACTGAAGACAGTTATGTA [XGTACX_site8857] | 9.58
12 | ATAAATATATATATAGTGCATATAAGCCACCTTCAA [GTGCAC_site9628] | 9.69
13 | TATATAATACAACATGCACACATATATATGTGAATC [CACACA_site8794] | 9.94
14 | CGTAATAAAAACAAATGTACATGACCTGGACAGGTT [XGTACX_site6560] | 9.98
15 | AATAAGTTATTATTTTGTACACATAAATAATACGTT [XGTACX_site814] | 9.65
16 | GCACTAAAAAAATAAACACACAGATTTATATAATAT [CACACA_site1381] | 9.79
17 | AAGGAACTATAATATACACACATAAGTGTACTTATA [CACACA_site7816] | 9.78
18 | AAAAAAACGTAAAAATGTACTTTTTGTATATAACCT [XGTACX_site7950] | 9.64
19 | ATATATGCATATATTTGTACACATTTTTTTACATAA [XGTACX_site4624] | 9.76
20 | AAACAAAATAAATATGAACACACACCGTTATGCCTT [CACACA_site8347] | 10.5
21 | TATTTGTGGATTTTTACACACATTAATATATATATA [CACACA_site3375] | 9.78
22 | AGGAAAATTATGAATGGTACAGAATATATTAGGAGA [XGTACX_site6282] | 9.79
23 | TTATAAAATAAACTTACACACATGAAATATTATATT [CACACA_site1945] | 9.68

Row | Sequence | gcPBM binding intensity (ln)
24 | ACATAGATGCATATCACACATAATAATATTGTCGTA [CACACA_site4819] | 9.85
25 | TAAAGCGACATTTGGAAAATATATATCCTAGCATTT [CACACA_negctrl_site327] | 9.56
26 | TATTCGTGCAATAGTAGTACACTTAAAAATTATTCA [XGTACX_site269] | 9.57
27 | AAAATACACAGACACACACACATATAAATAAATATT [CACACA_site7871] | 10.8
28 | ATTCGTTATAAAATATGTACATAAATATATATATAT [XGTACX_site2819] | 9.7
29 | GTAGACTGAAACCACACACACATATATATATATATT [CACACA_site605] | 10.2
30 | TAATATTTCGCACTGTGTACTGAAATATTTATATCG [XGTACX_site516] | 9.58
31 | ATAATAAGACGATAAGGTACACAAAATGTTAATATA [XGTACX_site6984] | 9.85
32 | TATTCAAATTTCCACATACACACCTTGTAGATATAT [CACACA_site281] | 9.76
33 | AAGACAAATTTTACATGTACAAATATATTACATATA [XGTACX_site7060] | 9.61
34 | AAGAAAAAAAGCAACACACGTACCAACACAATTATG [CACACA_site3133] | 10.4
35 | AATAATAATAAAAATAAACACACATATATATGTATA [CACACA_site8928] | 9.85
36 | AAAGAAAGAAAGAAAAGTACTTAAACTTTTAAAAAT [XGTACX_site8531] | 9.66
37 | ATTTCTTTTGTTATAGTGCATAATATTTATGTACGT | 9.65
38 | ATATTAATATATAGAAGTACTCACATGTTAATATAA [XGTACX_site7323] | 9.66
39 | TAACTATCATGTATTACACACAATATTTATTATATA [CACACA_site2701] | 9.85
40 | TTAAATAAATAAATAACACACATATAAAAATAACGC [CACACA_site3266] | 9.95
41 | CTATAATATTAGTGCACACACAAAAATGTACTAAAC [CACACA_site6442] | 10.3
42 | AAGAAAAAAACAAAAAAAAAAAAAAAAATTCTTATT [TGCATGCA_negctrl_site504] | 9.3
43 | ATTTTTTTCCACTAGTGTACAAATTTTACATTGTGT [XGTACX_site5023] | 9.97
44 | ACTAATGTAAAAGTTTGTACATATATTGAGAATTAT [XGTACX_site7439] | 9.66
45 | ATAAAATAAAAGGAATGTACTTTTTTTATTGTAATT [XGTACX_site4372] | 9.55
46 | AACAAATTGAAACAATAATTGGAAAAAAAAAAAAAA [CACACA_negctrl_site1145] | 9.3

Row | Sequence | gcPBM binding intensity (ln)
47 | AACAAATACGGACACACACACACACTAGAAAAAAAA [CACACA_site4442] | 11
48 | TAAAAAAAAACAGAAACACACATTATTCATATAGAT [CACACA_site7052] | 9.94
49 | AAAAGCACCGTTCGTTGTACACTGAAACACTTTTGT [XGTACX_site199] | 9.78
50 | GTTATAAATTTTTTTTTTTTTTTTTTTTTTTTTTTT [CACACA_negctrl_site848] | 9.33
51 | AAATGTATATATGTATGTACATATATATATATATAT [XGTACX_site5778] | 9.72
52 | AGTTTCTATTTAGTGTGTACTTAAGAAAAATATCTC [XGTACX_site82] | 9.53
53 | ATAAACTGAGTGGTTACACACAAAACCAATAATTTT [CACACA_site3478] | 9.87
54 | ATATATATATATATATGTACTCATATTTTATTATTT [XGTACX_site898] | 9.65
55 | TTTTCAATTTTTTATGAACACACAAAAAAAAAAAAA [CACACA_site8808] | 9.29
56 | TCGCAAATAAATTAATGTACACATATATATATATAT [XGTACX_site5145] | 9.76
57 | TATTATAATGACTATAGTACATAATATTATTTATAT [XGTACX_site1977] | 9.59
58 | ATAGAACTGAATAAATCTATAAATAAATATATATAT [GTGCAC_negctrl_site604] | 9.56
59 | CTCCACAAACAAATCGCACACCCAACCCAACATATA [CACACA_site2650] | 9.98
60 | AATAAATATAAATACACACCCATATATATATATATA [CACACA_site5436] | 9.67
61 | TTAAAAAAAAAAAAAAGTACACACTTATAAAATATT [XGTACX_site1630] | 9.68
62 | ACCAATAAATATTTGGTGCATACATATATATATATA | 9.49
63 | TCATACCTACATAAAAAAAGGGAAACAAAATGTCAT [XGTACX_negctrl_site34] | 9.56
64 | CTAAATAAAGTTAACACACACATAATATTTATATGT [CACACA_site6368] | 10.3
65 | TACATAAACATTTATACACACATTAGATATACATAT [CACACA_site6329] | 9.85
66 | TCAAAGAGTAGAAAGGTGCTTATGAACGAGATAATT | 9.77
67 | AAAGTTACATTCGACACACACATAACAACTAAATAA [CACACA_site3419] | 10.1
68 | TTTTACATATATATATGTACGAAAATGAAAAGGTCA [XGTACX_site5576] | 9.59
69 | TATTATAATTTTATATGTACACATATATAAATATAT [XGTACX_site4054] | 9.63

Row | Sequence | gcPBM binding intensity (ln)
70 | TTTATTTATTAATACACACACACACCCCCACAAAAT [CACACA_site240] | 11.4
71 | ACAAGAACAGAACGTACACACACATATATATATATA [CACACA_site9143] | 10.4
72 | ACCTACACAAGCATTAAACACACAAAAGGGATACTT [CACACA_site8273] | 9.92
73 | ACCTAATTTTTATATTGTACATAATATAATATATAT [XGTACX_site1715] | 9.82
74 | AACTAAATTTATAATTGTACATTAAAATATGTATTA [XGTACX_site479] | 9.51
75 | AAATATTACATACACGCACACATTAATATATTTAAA [CACACA_site2603] | 10.1
76 | TTTTTTAAAACTTCAAAAAGAGCACTTGAATTTTTT [GTGCAC_negctrl_site455] | 9.2
77 | ACATATACATTTATATGTACTCATTTATCTTATGTA [XGTACX_site6594] | 9.83
78 | ATTCATTTTAATATGGGTACATAAAAATAAAAAGAA [XGTACX_site2801] | 9.68
79 | TAATATGAAAAGTGTACACACGCACAGACAAAAAAA [CACACA_site5594] | 10.1
80 | GCATAAATCAGACACACACACATATATAAATATGTA [CACACA_site7187] | 10.6
81 | AATATTTAATTCAACACACATACATATTTATTAAAA [CACACA_site2342] | 9.99
82 | TACATTTTTATTTTTACACACATATTTATTTATATA [CACACA_site6609] | 9.99
83 | TATGATGATGAATAACGTACAAAAAAATTAATCACC [XGTACX_site6794] | 9.78
84 | ATAAATATATGGTTTCATTATATTAAATTCAATTTA [CACACA_negctrl_site213] | 9.38
85 | TGTTTATTTTTTTTATGTACTTATTTTTTATTGCAT [XGTACX_site719] | 9.9
86 | GATTTTCATATTTTTTGTACTTACATTTTTCTATAC [XGTACX_site6002] | 9.99
87 | ATAAAATCTTAATCAACAAACAAACAAAAAAAAAAT [CACACA_negctrl_site1161] | 9.67
88 | TATGTGATATATTTATCACACATTATATATATATAT [CACACA_site5103] | 9.66
89 | AATAAATAAATAAGTACACACATATATATATATATA [CACACA_site284] | 9.7
